Cell viability data for 28 sequences are collected here from the supplement of paper PMC6206098.

One data set deals with HeyA8. Kind of data set: cell viability relative to lipid-only control; higher = less toxic. The note with it: concentration: 10 nM; 96 h; Homo sapiens. The procedure: (§1)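 Arrayed screen of 4096 siRNA duplexes, each carrying one of all possible 6mer seeds at guide-strand positions 2-7 in a fixed neutral 19mer scaffold (constant flanks: U at position 1, then ACAUGUAAACCA, plus a 3' AA overhang). The passenger strand is 2'-O-methylated at positions 1-2 so only the guide strand loads into RISC. Duplexes were reverse-transfected at 10 nM with RNAiMAX in triplicate in 384-well plates; viability was read by CellTiter-Glo ATP content 96 h after transfection. Values are % viability normalised to lipid-only wells (HeyA8, H460, M565) or to siNT1 (3LL).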

In a further data set the test system is H460. The description is as above. The following applies: concentration: 10 nM; 96 h; Homo sapiens. The procedure: as §1
The next data set has as its system M565. The description is as above. The following applies: concentration: 10 nM; 96 h; Mus musculus. The procedure: as §1
The subject of a further data set is 3LL. The data set is described as follows: cell viability relative to siNT1 control; HeyA8 human ovarian and H460 human lung cancer; M565 mouse liver and 3LL mouse lung cancer; siNT1 is a non-toxic control siRNA; higher = less toxic. The note with it: concentration: 10 nM; 96 h; Mus musculus. The procedure:
as §1

± gives the uncertainty stated by the source. The sequences are guide strands of siRNAs; only the seed at positions 2 to 7 varies.
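Wherever cell viability relative to siNT1 control is given: Luminescence-based viability of cells reverse transfected in 384-well plates with lipid-complexed siRNAs built on a non-toxic 19mer backbone whose passenger strand carries 2′-O-methyl groups at positions 1 and 2, triplicates.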

A word on the cell viability: it is a read-out of living cells in per cent, often relative to untreated cells. Turning to UCGUGUUACAUGUAAACCAAA, the cell viability was found to be 72.5 ± 7% with HeyA8, 81.4 ± 14% in the data set with H460, 20.6 ± 2.6% in the data set on M565 and 90.2 ± 13% in the data set with 3LL.
For UUCACACACAUGUAAACCAAA the same measures were 68.2 ± 9.3%, 35.6 ± 4.8%, 70.1 ± 10% and 36.5 ± 10%.
Consider UUACGGAACAUGUAAACCAAA, for which the cell viability in the data set on HeyA8 was determined as 103 ± 4.2%; in the data set on H460, 96.2 ± 10%; with M565, 111 ± 33%; in the data set with 3LL, 82.1 ± 3.7%.
For UCAGAAGACAUGUAAACCAAA the same measures were 91.2 ± 3.2%, 66.6 ± 13%, 57.1 ± 11% and 92.9 ± 17%.
In the same order, the values of UGAGAAAACAUGUAAACCAAA are 95.8 ± 12%, 88 ± 4.2%, 52.3 ± 2.3% and 87.4 ± 17%.
Take UGCCACGACAUGUAAACCAAA: the cell viability with HeyA8 amounted to 64.7 ± 5.5%; with H460, 45.2 ± 5.2%; in the data set on M565 it was 56 ± 6.4%; in the data set on 3LL, 82.4 ± 15%.
In the same order, the values of UCACUCAACAUGUAAACCAAA are 83.4 ± 4.6%, 45.6 ± 13%, 69.8 ± 9.7% and 94.5 ± 10%.
For UGCUAGCACAUGUAAACCAAA the same measures were 4.66 ± 0.75%, 8.26 ± 0.96%, 10.6 ± 7.8% and 7.6 ± 2.8%.
UAGUCACACAUGUAAACCAAA: the cell viability in the data set on HeyA8 was 32.4 ± 2.1%; in the data set on H460, 47.3 ± 7.9%; in the data set on M565, 27.9 ± 5.1%; with 3LL it was 37.6 ± 7.9%.
In the case of UUCUUAUACAUGUAAACCAAA, the cell viability with HeyA8 amounted to 84.7 ± 6.5%; with H460 it was 62.3 ± 3.7%; in the data set with M565, 94.2 ± 14%; with 3LL, 75.8 ± 13%.
Consider UGUCUGGACAUGUAAACCAAA, for which the cell viability in the data set with HeyA8 is 7.07 ± 1.7%; with H460 it was 21.8 ± 2.2%; with M565 it was 5.38 ± 1.5%; in the data set on 3LL, 11.4 ± 1.3%.
Consider UACAAAUACAUGUAAACCAAA, for which the cell viability with HeyA8 came out at 53.8 ± 3.2%; in the data set on H460, 79 ± 13%; in the data set on M565, 64 ± 12%; in the data set with 3LL, 86.7 ± 10%.
UUUGACGACAUGUAAACCAAA: the cell viability in the data set with HeyA8 was 99.9 ± 6%; in the data set on H460, 70.3 ± 3.4%; in the data set on M565 it was 72.2 ± 12%; with 3LL, 99.3 ± 3%.
In the case of UCGUUAAACAUGUAAACCAAA, the cell viability in the data set on HeyA8 came out at 84.1 ± 3.4%; in the data set with H460, 92.1 ± 21%; in the data set with M565, 66.3 ± 5.6%; in the data set on 3LL, 95 ± 13%.
In the same order, the values of UCCGGAGACAUGUAAACCAAA are 74 ± 12%, 61.7 ± 11%, 60.8 ± 11% and 104 ± 15%.
In the same order, the values of UCCUGCGACAUGUAAACCAAA are 71.4 ± 1.2%, 74.2 ± 19%, 63.8 ± 3.3% and 84 ± 19%.
In the same order, the values of UGGCAUCACAUGUAAACCAAA are 7.18 ± 5.3%, 25.6 ± 4.7%, 30.2 ± 2.3% and 43 ± 3.8%.
On to UACGCGUACAUGUAAACCAAA, for which the cell viability in the data set with HeyA8 was determined as 92.4 ± 10%; with H460 it was 65.5 ± 3.3%; with M565, 63.5 ± 3.6%; in the data set on 3LL, 84.6 ± 3.8%.
In the case of UACAGUAACAUGUAAACCAAA, the cell viability in the data set with HeyA8 was 99.9 ± 11%; in the data set with H460, 114 ± 12%; in the data set on M565, 69.4 ± 6.3%; with 3LL, 95.7 ± 18%.
Regarding UCAUCGUACAUGUAAACCAAA, the cell viability in the data set on HeyA8 worked out at 47.8 ± 6%; with H460, 50.9 ± 6.5%; in the data set on M565, 37.4 ± 3%; in the data set with 3LL it was 49.1 ± 11%.
Take UAGACAAACAUGUAAACCAAA: the cell viability in the data set with HeyA8 was found to be 105 ± 12%; in the data set on H460 it was 99.7 ± 21%; in the data set on M565, 56.4 ± 5.2%; in the data set on 3LL it was 80.7 ± 2%.
For the sequence UACACUAACAUGUAAACCAAA, the cell viability in the data set on HeyA8 stood at 84.5 ± 6.9%; with H460, 98.5 ± 3%; with M565, 70 ± 9.2%; in the data set on 3LL it was 82.7 ± 11%.
In the same order, the values of UAGCCGGACAUGUAAACCAAA are 28.1 ± 4.2%, 58.2 ± 12%, 18 ± 4.9% and 78.7 ± 8.4%.
For UUGCGGUACAUGUAAACCAAA the same measures were 53.2 ± 1.9%, 42.1 ± 2.1%, 12.7 ± 5.3% and 65.2 ± 7.8%.
For UCACCGAACAUGUAAACCAAA the same measures were 83.6 ± 9.4%, 56.1 ± 8.2%, 58.6 ± 10% and 93.6 ± 12%.
With UACCGCCACAUGUAAACCAAA, the cell viability with HeyA8 came to 12.8 ± 2.3%; with H460, 63.2 ± 4.2%; with M565, 7.94 ± 1.8%; with 3LL, 24.3 ± 5.4%.
For UGGUGGCACAUGUAAACCAAA the same measures were 3.97 ± 0.63%, 12.7 ± 2.1%, 15.7 ± 1.4% and 8.5 ± 3.1%.
For UCAUGCGACAUGUAAACCAAA the same measures were 63.3 ± 4.7%, 18.7 ± 0.78%, 53.6 ± 1% and 78.8 ± 13%.
